Measured values reported in PubChem BioAssay AID1508642 (National Center for Advancing Translational Sciences (NCATS), 2021).
Out of some 43,000 compounds screened, about 200 (0.47%) were called active. About 12% were inconclusive and are not listed. The call rests on the fitted dose curve; in most records, active means well fitted cell-killing curve with a large enough effect; inconclusive means small, poorly fitted or top-dose-only effect, or effect the other way; inactive means flat fitted curve, though single readings scatter. Some of the results follow.

Experiment: Cell viability qHTS assay in S16 Pmp22-F2sN cells; further: nearly all actives have a fitted effect of over 65% in size
Conditions: S16 Pmp22-F2sN Schwann cells (luciferase reporters placed in the Pmp22 gene) viability, CellTiter-Glo, 24 h; series mostly up to 57.5 µM; activity change, negative = cytotoxicity: at the top concentration
In short: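 Rat S16 Schwann reporter line, 24 h treatment with library compounds delivered at 23 nL per well. Cell viability by CellTiter-Glo luminescence.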
On the % scale 0 is the no-effect control and ±100 the full control effect.

Compound | activity change, negative = cytotoxicity
COc1cccc(CN2CCc3nc(Nc4ccc5c(c4)OCCO5)ncc3C2)c1 | inactive: 6.61%
CCc1ccc(-n2c(=O)c3c4c(sc3n(CC(=O)NCCCOC)c2=O)CCCC4)cc1 | inactive: 15.1%
Fc1ccc(NCc2cccn2-c2nnc(N3CCOCC3)s2)cc1 | inactive: 18.4%
CC1CCN(c2ncnc3c2cnn3-c2ccc(F)cc2)CC1 | inactive: 3.19%
O=C(NCCc1cccs1)c1ccc(Cn2c(SCc3ccc(F)cc3)nc3cccnc32)cc1 | inactive: 7.18%
COc1ccc(C(=O)CN2CCN(S(=O)(=O)c3ccc(C(C)C)cc3)CC2)cc1 | inactive: -12.8%
COc1cccc(C2CC(=O)Nc3cc4c(cc32)OCCO4)c1OC (stereo unspecified) | inactive: -33.3%
CCOC(=O)c1ccccc1NC(=O)Cn1ncc2c([nH]c3ccccc32)c1=O | inactive: -1.96%
CCc1ccccc1NC(=O)CCn1nc(C)c2c(C)n(-c3ccccc3)nc2c1=O | inactive: 1.92%
Cc1ccccc1Cn1c(SCc2ccc(C(=O)NC(C)c3ccccc3)cc2)nc2ccncc21 (stereo unspecified) | inactive: -3.25%
CCOC(=O)c1oc2ccc(S(=O)(=O)n3nc(-c4ccccc4OC)cc3N)cc2c1C | inactive: -14%
O=C(COC(=O)c1cc(-c2cccs2)nc2ccccc12)c1ccccc1 | inactive: -1.41%
O=C(c1ccc2c(c1)N(Cc1ccccc1F)C(=O)c1ccccc1S2(=O)=O)N1CCOCC1 | inactive: 8.02%
CCCN(CCC)CCCNC(=O)Cn1cnc2sc(C)c(S(=O)(=O)N3CCCCC3)c2c1=O | inactive: 0.556%
CCCN(Cc1cccs1)C(=O)Nc1cc(Cl)c(OC)cc1OC | inactive: 3.5%
COc1cccc(-n2c(SCC(=O)Nc3cc(C)ccc3C)nc3c(oc4ccccc43)c2=O)c1 | inactive: -4.84%
COc1ccc(-c2cc(C(=O)Oc3ccccc3)c3cc(C)ccc3n2)cc1 | inactive: -18.5%
CCn1c(=O)n(-c2ccc(C)c(F)c2)c(=O)c2sc3ccccc3c21 | inactive: -5.41%
COc1ccc(C2=NC3(CCCCC3)N(CC(=O)Nc3ccc(C(C)C)cc3)C2=O)cc1 | inactive: -16%
CCOCCCNC(=O)c1ccc2nc(CCc3ccccc3)oc2c1 | inactive: -0.604%
Cc1ccc(-c2nc3nc(C)cc(N4CCN(c5cc(Cl)ccc5C)CC4)n3n2)cc1 | inactive: -2.91%
CCc1ccc(NC(=O)C(NS(=O)(=O)c2cccs2)C(C)C)cc1 (stereo unspecified) | inactive: -3.37%
O=C(Nc1ccc2oc(-c3cccc4c(Br)cccc34)nc2c1)c1ccc(F)cc1 | inactive: 12.1%

Compound | activity change, negative = cytotoxicity
Cn1c(=O)c2c(c3ccccc31)OC(=O)CC2c1ccc(C(F)(F)F)cc1 (stereo unspecified) | inactive: 0.14%
Cc1ccc(NC(=O)c2nn(C)c3c2CS(=O)(=O)c2ccccc2-3)c(Cl)c1 | inactive: -2.04%
COc1ccc(NC(=O)c2cn(CC(C)C)c(=O)c3cc(OC)c(OC)cc23)cc1Cl | inactive: -12.4%
NS(=O)(=O)c1ccc(CCNC(=O)CCCCCn2c(=O)[nH]c3ccccc3c2=O)cc1 | inactive: 0.343%
CCc1cccc(NC(=O)CSc2ncc3c(n2)-c2ccc(Cl)cc2N(Cc2ccccc2)S3(=O)=O)c1 | inactive: -1.28%
CCc1c(C)sc2c1CCN(C(=O)Nc1cc(OC)c(OC)c(OC)c1)C2c1ccccc1 (stereo unspecified) | inactive: -19%
COc1cccc(C(=O)NC2(C(F)(F)F)C(=O)Nc3c2c(=O)[nH]c(=O)n3-c2ccc(C)cc2)c1 (stereo unspecified) | inactive: 4.45%
Cc1nc(N2CCOCC2)c2c(C(=O)NCc3cccc(Cl)c3)c(C)oc2n1 | inactive: 10.9%
Oc1c(C(c2ccccc2)N2CCC3(CC2)OCCO3)sc2nc(-c3ccco3)nn12 (stereo unspecified) | inactive: -0.0139%
COc1ccc(-c2nc3c(c(SCC(=O)Nc4ccc(C(=O)O)cc4)n2)Cc2ccccc2O3)cc1 | inactive: 2.09%
CCOC(=O)Cc1ccc(NC(=O)Nc2cccc(OCc3cc(=O)n4cc(C)ccc4n3)c2)cc1 | inactive: 9.52%
O=C(c1noc2c1CCCCC2)N1CCN(c2ccc(Cl)cc2)CC1 | inactive: -0.439%
CCc1ccc(-c2cn3c(n2)sc2cc(C(=O)NCCc4ccc(OC)cc4OC)ccc23)cc1 | inactive: 18.3%
COc1ccccc1NC(=O)Cn1c(=O)n(Cc2ccc3c(c2)OCO3)c(=O)c2oc3ccccc3c21 | inactive: 1.69%
CN(Cc1ccccc1)C(=O)CN1C(=O)CSc2ccc(S(=O)(=O)N3CCOCC3)cc21 | inactive: 12.8%
COc1ccc(OC)c(S(=O)(=O)Nc2cc3c(cc2C)n(C)c(=O)c(=O)n3C)c1 | inactive: -19.7%
Cc1ccc(NC(=O)CN(c2ccccc2)S(=O)(=O)N(C)C)cc1Cl | inactive: 2.26%
CCCCN(CCCC)CCNC(=O)c1cn(C)c2ccc(S(=O)(=O)N3CCOCC3)cc2c1=O | inactive: 7.9%
Cc1c(Cl)cccc1NS(=O)(=O)c1ccc2[nH]cc(C(=O)NC3CCCC3)c(=O)c2c1 | inactive: -8.36%
COc1cccc(N2CC(NC(=O)Cc3cccs3)CC2=O)c1 (stereo unspecified) | inactive: 3.54%
CCOc1ccc(OCC)c(Nc2nc3ccccc3c3nnc(C)n23)c1 | inactive: 4.1%
Cc1ccc2c(c1)c1c(c(=O)n(-c3ccccc3)c(=O)n1CC(=O)N1CCCC1)n2C | inactive: 12.9%
CCn1cc(C(=O)NCCc2ccc(C)cc2)c(=O)c2cc(S(=O)(=O)N(C)C)ccc21 | inactive: -3.39%
